# In the supplement of paper PMC8728848:
# Some of the results follow.
# B1: ZG-16 (Homo sapiens), O60844 (protein)
# chain: IQARSSSYSGEYGSGGGKRFSHSGNQLDGPITALRVRVNTYYIVGLQVRYGKVWSDYVGGRNGDLEEIFLHPGESVIQVSGKYKWYLKKLVFVTDKGRYLSFGKDSGTSFNAVPLHPNTVLRFISGRSGSLIDAIGLHWDVYPTSCSRCSRGSDDDDKAEPRGPTIKPCPPCKCPAPNLLGGPSVFIFPPKIKDVLMISLSPIVTCVVVDVSEDDPDVQISWFVNNVEVHTAQTQTHREDYNSTLRVVSALPIQHQDWMSGKEFKCKVNNKDLPAPIERTISKPKGSVRAPQVYVLPPPEEEMTKKQVTLTCMVTDFMPEDIYVEWTNNGKTELNYKNTEPVLDSDGSYFMYSKLRVEKKNWVERNSYSCSVVHEGLHNHHTTKSFSRTPGKRTYHHHHHHARKLTR
# Key:
# Assay in all cases: glycan array binding signal (z-score within array); higher = stronger binding
# Settings in all cases: glycan notation: IUPAC condensed, linker removed
# [1] = molecular target: Neu5Ac(a2-3)Gal(b1-3)GlcNAc(b1-3)Gal(b1-3)GlcNAc
# Procedure, shortened: (§1)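 The binding signal is a Z-score computed within each array and averaged over linkers. Arrays of the same protein sequence at different concentrations or buffers were also averaged together. Data originate from 3228 arrays in the Consortium for Functional Glycomics database, kept only where the protein sequence was available.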
# [2] = molecular target: Neu5Ac(a2-3)Gal(b1-3)GlcNAc(b1-3)Gal(b1-4)GlcNAc
# Procedure, shortened: as §1
# [3] = molecular target: Neu5Ac(a2-3)Gal(b1-3)GlcNAc(b1-3)GalNAc
# Procedure, shortened: as §1
# [4] = molecular target: Neu5Ac(a2-3)Gal(b1-3)GlcNAc6S
# Procedure, shortened: as §1
# [5] = molecular target: Neu5Ac(a2-3)Gal(b1-3)[Fuc(a1-4)]GlcNAc
# Procedure, shortened: as §1
# [6] = molecular target: Neu5Ac(a2-3)Gal(b1-3)[Fuc(a1-4)]GlcNAc(b1-3)Gal(b1-3)[Fuc(a1-4)]GlcNAc
# Procedure, shortened: as §1
# [7] = molecular target: Neu5Ac(a2-3)Gal(b1-3)[Fuc(a1-4)]GlcNAc(b1-3)Gal(b1-4)[Fuc(a1-3)]GlcNAc
# Procedure, shortened: as §1
# [8] = molecular target: Neu5Ac(a2-3)Gal(b1-3)[Neu5Ac(a2-3)Gal(b1-4)]GlcNAc
# Procedure, shortened: as §1
# [9] = molecular target: Neu5Ac(a2-3)Gal(b1-3)[Neu5Ac(a2-6)]GalNAc
# Procedure, shortened: as §1
# Neu5Ac(a2-3)Gal(b1-4)Glc = molecular target: Neu5Ac(a2-3)Gal(b1-4)Glc
# Procedure, shortened: as §1
# [10] = molecular target: Neu5Ac(a2-3)Gal(b1-4)GlcNAc
# Procedure, shortened: as §1
# [11] = molecular target: Neu5Ac(a2-3)Gal(b1-4)GlcNAc(b1-2)Man(a1-3)[GlcNAc(b1-2)Man(b1-4)GlcNAc(b1-2)Man(a1-6)]Man(b1-4)GlcNAc(b1-4)GlcNAc
# Procedure, shortened: as §1
# [12] = molecular target: Neu5Ac(a2-3)Gal(b1-4)GlcNAc(b1-2)Man(a1-3)[Neu5Ac(a2-6)Gal(b1-4)GlcNAc(b1-2)Man(a1-6)]Man(b1-4)GlcNAc(b1-4)GlcNAc
# Procedure, shortened: as §1
# [13] = molecular target: Neu5Ac(a2-3)Gal(b1-4)GlcNAc(b1-3)Gal(b1-3)GlcNAc
# Procedure, shortened: as §1
# [14] = molecular target: Neu5Ac(a2-3)Gal(b1-4)GlcNAc(b1-3)Gal(b1-4)GlcNAc
# Procedure, shortened: as §1
# [15] = molecular target: Neu5Ac(a2-3)Gal(b1-4)GlcNAc(b1-3)Gal(b1-4)GlcNAc(b1-3)Gal(b1-4)GlcNAc
# Procedure, shortened: as §1
# [16] = molecular target: Neu5Ac(a2-3)Gal(b1-4)GlcNAc(b1-3)Gal(b1-4)[Fuc(a1-3)]GlcNAc
# Procedure, shortened: as §1
# [17] = molecular target: Neu5Ac(a2-3)Gal(b1-4)GlcNAc(b1-3)GalNAc
# Procedure, shortened: as §1
# [18] = molecular target: Neu5Ac(a2-3)Gal(b1-4)GlcNAc(b1-6)[Gal(b1-3)]GalNAc
# Procedure, shortened: as §1
# [19] = molecular target: Neu5Ac(a2-3)Gal(b1-4)GlcNAc(b1-6)[Neu5Ac(a2-3)Gal(b1-3)]GalNAc
# Procedure, shortened: as §1
# [20] = molecular target: Neu5Ac(a2-3)Gal(b1-4)GlcNAc6S
# Procedure, shortened: as §1
# [21] = molecular target: Neu5Ac(a2-3)Gal(b1-4)[Fuc(a1-3)]GlcNAc
# Procedure, shortened: as §1
# [22] = molecular target: Neu5Ac(a2-3)Gal(b1-4)[Fuc(a1-3)]GlcNAc(b1-3)Gal
# Procedure, shortened: as §1
# [23] = molecular target: Neu5Ac(a2-3)Gal(b1-4)[Fuc(a1-3)]GlcNAc(b1-3)Gal(b1-4)GlcNAc
# Procedure, shortened: as §1
# [24] = molecular target: Neu5Ac(a2-3)Gal(b1-4)[Fuc(a1-3)]GlcNAc(b1-3)Gal(b1-4)[Fuc(a1-3)]GlcNAc(b1-3)Gal(b1-4)[Fuc(a1-3)]GlcNAc
# Procedure, shortened: as §1
# [25] = molecular target: Neu5Ac(a2-3)Gal(b1-4)[Fuc(a1-3)]GlcNAc(b1-3)GalNAc
# Procedure, shortened: as §1
# [26] = molecular target: Neu5Ac(a2-3)Gal(b1-4)[Fuc(a1-3)]GlcNAc(b1-6)[Gal(b1-3)]GalNAc
# Procedure, shortened: as §1
# [27] = molecular target: Neu5Ac(a2-3)Gal(b1-4)[Fuc(a1-3)]GlcNAc(b1-6)[Neu5Ac(a2-3)Gal(b1-3)]GalNAc
# Procedure, shortened: as §1
# [28] = molecular target: Neu5Ac(a2-3)Gal(b1-4)[Fuc(a1-3)]GlcNAc6S
# Procedure, shortened: as §1
# [29] = molecular target: Neu5Ac(a2-3)Gal6S(b1-4)GlcNAc
# Procedure, shortened: as §1
# [30] = molecular target: Neu5Ac(a2-3)Gal6S(b1-4)[Fuc(a1-3)]GlcNAc
# Procedure, shortened: as §1
# Neu5Ac(a2-3)GalNAc = molecular target: Neu5Ac(a2-3)GalNAc
# Procedure, shortened: as §1
# [31] = molecular target: Neu5Ac(a2-3)GalNAc(b1-4)GlcNAc
# Procedure, shortened: as §1
# [32] = molecular target: Neu5Ac(a2-3)[GalNAc(b1-4)]Gal(b1-4)Glc
# Procedure, shortened: as §1
# [33] = molecular target: Neu5Ac(a2-3)[GalNAc(b1-4)]Gal(b1-4)GlcNAc
# Procedure, shortened: as §1
# [34] = molecular target: Neu5Ac(a2-3)[GalNAc(b1-4)]Gal(b1-4)GlcNAc(b1-3)GalNAc
# Procedure, shortened: as §1
# [35] = molecular target: Neu5Ac(a2-3)[Neu5Ac(a2-6)]GalNAc
# Procedure, shortened: as §1
# Neu5Ac(a2-6)Gal = molecular target: Neu5Ac(a2-6)Gal
# Procedure, shortened: as §1
# Neu5Ac(a2-6)Gal(b1-4)Glc = molecular target: Neu5Ac(a2-6)Gal(b1-4)Glc
# Procedure, shortened: as §1
# [36] = molecular target: Neu5Ac(a2-6)Gal(b1-4)GlcNAc
# Procedure, shortened: as §1
binder,measurement,setting,value
B1,glycan array binding signal (z-score),[1],-0.133
same,glycan array binding signal (z-score),[2],-0.202
same,glycan array binding signal (z-score),[3],-0.209
same,glycan array binding signal (z-score),[4],-0.169
same,glycan array binding signal (z-score),[5],-0.202
same,glycan array binding signal (z-score),[6],-0.208
same,glycan array binding signal (z-score),[7],-0.201
same,glycan array binding signal (z-score),[8],-0.177
same,glycan array binding signal (z-score),[9],-0.126
same,glycan array binding signal (z-score),Neu5Ac(a2-3)Gal(b1-4)Glc,-0.181
same,glycan array binding signal (z-score),[10],-0.209
same,glycan array binding signal (z-score),[11],-0.116
same,glycan array binding signal (z-score),[12],-0.186
same,glycan array binding signal (z-score),[13],-0.211
same,glycan array binding signal (z-score),[14],-0.176
same,glycan array binding signal (z-score),[15],-0.211
same,glycan array binding signal (z-score),[16],-0.183
same,glycan array binding signal (z-score),[17],-0.168
same,glycan array binding signal (z-score),[18],-0.205
same,glycan array binding signal (z-score),[19],-0.202
same,glycan array binding signal (z-score),[20],-0.16
same,glycan array binding signal (z-score),[21],-0.19
same,glycan array binding signal (z-score),[22],-0.127
same,glycan array binding signal (z-score),[23],-0.2
same,glycan array binding signal (z-score),[24],-0.204
same,glycan array binding signal (z-score),[25],-0.062
same,glycan array binding signal (z-score),[26],-0.204
same,glycan array binding signal (z-score),[27],-0.07
same,glycan array binding signal (z-score),[28],-0.169
same,glycan array binding signal (z-score),[29],-0.046
same,glycan array binding signal (z-score),[30],-0.194
same,glycan array binding signal (z-score),Neu5Ac(a2-3)GalNAc,-0.218
same,glycan array binding signal (z-score),[31],-0.229
same,glycan array binding signal (z-score),[32],-0.21
same,glycan array binding signal (z-score),[33],-0.173
same,glycan array binding signal (z-score),[34],-0.178
same,glycan array binding signal (z-score),[35],-0.228
same,glycan array binding signal (z-score),Neu5Ac(a2-6)Gal,-0.225
same,glycan array binding signal (z-score),Neu5Ac(a2-6)Gal(b1-4)Glc,-0.175
same,glycan array binding signal (z-score),[36],-0.173
